Data published in the supplement of paper PMC3334620.
Whole data set: some 33,000 sequences, median “E-score (-0.5 to 0.5)” near -0.054, cut for the highest 2% near 0.35. This is one part of the list.

What follows are sequences tested against T1, Stb5 (UniProt P38699) (assay: PBM E-score (8-mer binding enrichment) (E-score (-0.5 to 0.5)); higher = stronger / more preferred TF binding; most listed sequences are background and not binding sites). Conditions: protein concentration: 200 nM; construct: GST-full length.
T1 sequence: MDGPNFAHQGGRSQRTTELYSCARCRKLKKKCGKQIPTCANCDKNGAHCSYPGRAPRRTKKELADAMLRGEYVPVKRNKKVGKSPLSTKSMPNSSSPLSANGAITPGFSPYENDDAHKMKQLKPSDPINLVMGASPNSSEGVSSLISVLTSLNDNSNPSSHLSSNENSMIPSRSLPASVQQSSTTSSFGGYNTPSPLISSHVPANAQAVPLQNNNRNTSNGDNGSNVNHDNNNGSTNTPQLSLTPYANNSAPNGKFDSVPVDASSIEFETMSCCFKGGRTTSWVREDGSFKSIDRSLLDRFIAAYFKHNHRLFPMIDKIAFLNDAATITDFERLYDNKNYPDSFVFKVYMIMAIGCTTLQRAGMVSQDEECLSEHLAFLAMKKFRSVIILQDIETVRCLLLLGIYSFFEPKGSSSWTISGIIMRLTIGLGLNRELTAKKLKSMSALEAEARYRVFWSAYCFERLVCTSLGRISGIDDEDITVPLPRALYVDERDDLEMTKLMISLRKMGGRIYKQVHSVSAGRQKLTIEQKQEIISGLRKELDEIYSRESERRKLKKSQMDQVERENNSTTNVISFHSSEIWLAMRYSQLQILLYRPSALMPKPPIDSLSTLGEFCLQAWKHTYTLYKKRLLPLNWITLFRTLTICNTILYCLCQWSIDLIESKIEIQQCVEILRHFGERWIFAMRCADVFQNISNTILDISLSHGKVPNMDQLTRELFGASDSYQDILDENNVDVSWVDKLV
Method: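 Universal 'all 10-mer' protein binding microarrays (Agilent AMADID 015681) probed with GST-tagged S. cerevisiae TFs (full-length or DBD) made by in vitro transcription/translation (PURExpress), about 100-200 nM. Bound TF was detected with fluorescent anti-GST. Each ungapped 8-mer (which stands for itself and its reverse complement) is scored by the PBM enrichment score (E-score), a modified Wilcoxon-Mann-Whitney statistic from -0.5 to +0.5, computed with the Universal PBM Analysis Suite. Scale: above 0.35 generally sequence-specific binding.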

| Sequence | PBM E-score |
| --- | --- |
| CACATTAA | -0.149 |
| TAGATCAA | -0.267 |
| CAATCTGG | -0.148 |
| AAAGTGAT | -0.13 |
| GACCCACC | 0.00543 |
| AACGCTCC | -0.068 |
| GATACCCA | -0.19 |
| ACTAAAGC | 0.24 |
| AAAGCGTA | -0.0834 |
| GCACGATA | -0.00583 |
| AGAAAACG | 0.102 |
| GGACTCCA | 0.086 |
| CCCCATGA | -0.159 |
| CCATCAAG | -0.259 |
| ACCATCCA | -0.118 |
| CACGTATA | 0.0139 |
| ATTAAGCG | 0.0447 |
| CCTGGGCA | -0.341 |
| ACGTCTAT | -0.122 |
| CGTCCGGA | 0.153 |
| GGCAAACC | -0.00112 |
| AGCGTTCA | -0.161 |
| GCGGTGAA | 0.345 |
| AGCTATGA | -0.168 |
| AAATCTGA | -0.048 |

| Sequence | PBM E-score |
| --- | --- |
| CATCGGAC | 0.34 |
| TAACCTCA | -0.211 |
| CATACCTC | 0.0672 |
| GCGTTGTA | -0.211 |
| CCATGAAA | -0.0823 |
| CTAGCCAC | -0.224 |
| ACGGATCT | 0.288 |
| GTGGGCGA | -0.243 |
| GTATTCGA | -0.145 |
| CCGGAGAC | 0.22 |
| ACAGACCA | -0.239 |
| ATAGAACC | 0.268 |
| ACTAGTAT | -0.0145 |
| CAGAGGAC | -0.186 |
| ACAAGGGT | -0.169 |
| GGAACTCA | -0.106 |
| AGTAGCAC | -0.093 |
| TCATGGAA | -0.226 |
| ACATGGGT | -0.243 |
| TCATAGGA | -0.132 |
| CTGACCGC | 0.194 |
| AAGGATAG | -0.00388 |
| TAAAGAAA | 0.039 |
| AGCTACGC | -0.00599 |
| ACGAACGC | -0.125 |

| Sequence | PBM E-score |
| --- | --- |
| ACGTTAGG | 0.0231 |
| ATCACCAG | -0.0626 |
| GGTAGTCA | -0.0371 |
| ACTGAAAA | -0.182 |
| CGCGGATA | 0.328 |
| ACGCCTCG | 0.0283 |
| CTTAGCTA | -0.204 |
| CTTCTCTC | -0.115 |
| GAATTCAC | -0.0754 |
| GTATCCAA | -0.035 |
| AAATTAGA | -0.0596 |
| CTCGTTGA | -0.0756 |
| TCCAATCA | 0.0392 |
| CACCGGAA | 0.293 |
| CCATGTGA | -0.247 |
| ATTGACAG | 0.0007 |
| GAAAGTCC | 0.282 |
| ACCTTTGA | -0.207 |
| GCAATCGA | -0.236 |
| CGGGTAAC | 0.00435 |
| ACCAGCGA | 0.0766 |
| ATTACGCG | 0.0522 |
| ACGTCATG | 0.00304 |
| ATCCTCAA | -0.189 |
| CAGCCGCA | -0.0866 |

| Sequence | PBM E-score |
| --- | --- |
| CTGCACAG | -0.114 |
| CGGACTAA | 0.428 |
| AGTTTTGC | 0.119 |
| TAGCTAAA | -0.0593 |
| GGGAAGAC | 0.0471 |
| AGGGATGG | -0.135 |
| CACACCAG | -0.335 |
| AATCCCCA | -0.0992 |
| ACGACGCA | 0.0723 |
| CTTCGGGC | 0.038 |
| GGTACTAC | 0.303 |
| GCGAAGCA | 0.109 |
| CGCAGTTC | 0.00085 |
| AGTAGCCC | 0.125 |
| AGTGGCAT | -0.234 |
| CCACTAAG | -0.0427 |
| TATTGGGA | -0.198 |
| GGAGGACC | 0.00687 |
| AGATTTTA | 0.0159 |
| AGACTCAG | -0.115 |
| AGGACTGC | -0.385 |
| CACCGATG | 0.357 |
| CCCGATTA | 0.211 |
| AAAATCAG | -0.128 |
| ATGGATTG | -0.041 |

| Sequence | PBM E-score |
| --- | --- |
| CTTATCAA | -0.125 |
| CTCTTATC | -0.11 |
| CAAGGTAA | 0.0554 |
| AGTACTAC | -0.267 |
| GCTCTACA | -0.0127 |
| GGCTGGCA | -0.107 |
| AGAGAAGC | -0.27 |
| AACCATCA | -0.0995 |
| ATTCATAC | 0.0518 |
| CTAAAAAA | 0.252 |
| ATGCAAAT | -0.155 |
| ATGAGTGC | 0.0822 |
| GATTTTAA | 0.128 |
| ACAACAGG | -0.0624 |
| CCGTTGAC | 0.234 |
| ACCGTCTC | 0.0885 |
| ACACCTAC | 0.093 |
| AAAGATCA | -0.192 |
| ATCAAGGA | -0.12 |
| ACCGACCA | 0.332 |
| ATGTAAAA | -0.0462 |
| CCTTTCCC | -0.0122 |
| CTGGTGTA | -0.0635 |
| CCATCTCG | -0.166 |
| ACGATTGG | -0.278 |

| Sequence | PBM E-score |
| --- | --- |
| ATGCCTTC | -0.141 |
| AGGGAGCG | -0.0929 |
| AGCGGTTA | 0.122 |
| ATATTCAT | -0.129 |
| CATACCGG | 0.193 |
| ATTTTGGC | 0.00659 |
| ACAGGCCA | -0.22 |
| ACTGGTTA | -0.11 |
| ACTTTAAC | 0.0115 |
| CAGTTGTA | -0.064 |
| CGTCAATC | -0.118 |
| ATATCCCA | 0.05 |
| AGAAGTAG | -0.188 |
| GTACAAAA | 0.0684 |
| TACCCCGA | 0.407 |
| ACTCAAGG | -0.223 |
| CAACGTTC | -0.0112 |
| ATTTCACC | 0.263 |
| AGGTTGGA | -0.0328 |
| CTTTCCTA | -0.141 |
| ATCGTGTG | -0.117 |
| CTGTTGAA | -0.0776 |
| ACTATATC | 0.0952 |
| GTCGGATA | 0.371 |
| ATGGAGAG | -0.123 |

| Sequence | PBM E-score |
| --- | --- |
| CGAGGCCA | -0.229 |
| CATAGCTA | -0.27 |
| AATCTCCT | -0.0106 |
| GGGGACCC | -0.145 |
| AGGCGACG | -0.112 |
| CCCGTGAC | 0.155 |
| GATTGCGC | 0.0307 |
| TCAGTCAA | -0.197 |
| CGCGGAAC | 0.263 |
| ACAGCCAA | -0.222 |
| GGCGACAA | 0.0916 |
| CAGGGCGC | 0.00472 |
| CCCTAAGG | -0.167 |
| AGTGTAAG | -0.174 |
| ACAAGGGC | -0.0351 |
| AGCGGAGA | 0.236 |
| ACCTGTGC | -0.236 |
| GGTTGCTA | -0.071 |
| CGAGTGAG | -0.128 |
| GTCTTCGA | -0.208 |
| AAGAGTGA | -0.258 |
| TCTCCAGA | -0.00743 |
